# “And” between values parts separate entries of the source, which are not always exact repeats. Identical values can stand only once. This is one part of the list. These are further read-outs of the screen, such as a control signal, another cell line or another target. No call is given for them.
# Tests used:
# Experiment in all cases: Primary Screen for Target Class Profiling of Small Molecule Inhibitors of Methyltransferases
# [1] = target: Glycine N-methyltransferase (Homo sapiens) (UniProt Q14749); conditions: purified enzyme, MTase-Glo SAH luminescence; measured here: GNMT inhibition; at 40 µM; stronger effect = lower value
# In short: (§1)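 Each enzyme was assayed with SAM and its substrate. SAH formation detected by MTase-Glo luminescence; single-point 40 uM screen[…].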
# [2] = target: Guanidinoacetate N-methyltransferase (Homo sapiens) (UniProt Q14353); conditions: purified enzyme, MTase-Glo SAH luminescence; measured here: GAMT inhibition; at 40 µM; stronger effect = lower value
# In short: as §1
# [3] = target: Histamine N-methyltransferase (Homo sapiens) (UniProt P50135); conditions: purified enzyme, MTase-Glo SAH luminescence; measured here: HNMT inhibition; at 40 µM; stronger effect = lower value
# In short: as §1
# [4] = target: Nicotinamide N-methyltransferase (Homo sapiens) (UniProt P40261); conditions: purified enzyme, MTase-Glo SAH luminescence; measured here: NNMT inhibition; at 40 µM; stronger effect = lower value
# In short: as §1
# [5] = target: Phenylethanolamine N-methyltransferase (Homo sapiens) (UniProt P11086); conditions: purified enzyme, MTase-Glo SAH luminescence; measured here: PNMT inhibition; at 40 µM; stronger effect = lower value
# In short: as §1
# % is scaled to controls: 0 for no effect and ±100 for the full control effect.
SMILES,"activity change, negative = inhibition [1]","activity change, negative = inhibition [2]","activity change, negative = inhibition [3]","activity change, negative = inhibition [4]","activity change, negative = inhibition [5]"
CN1CCN(c2cc(N3CCCC(CN4CCCCC4)C3)nc(N)n2)CC1 (stereo not given),-4.68%,-4.7%,-14.1%,1.01%,-5.06%
CC1CC2OC3(OC2C(C)(C)O)C1C1(C)CCC24CC25CCC(O[C@@H]2OC[C@@H](O)[C@H](O)[C@H]2O)C(C)(C)C5CC=C4C1(C)C3O (stereo not given in full),5.1%,14.9%,11.1%,1.93%,8.24%
C[C@H]1CO[C@@H]2Cn3cc(C(=O)NCc4ccc(F)cc4F)c(=O)c(O)c3C(=O)N12,4.38%,4.14%,9.89%,-12.1%,3.78%
C=C1CC23CC1CCC2C12OC(=O)C(C)(C(O)CC1O)C2C3C(=O)O (stereo not given),-5.97%,-5.95%,0.756%,-16.6%,-15.2%
CCC(C)NC(=O)c1ccc2c(=O)n(C3CC3)c3nn(CC(=O)Nc4cccc(F)c4)c(=O)n3c2c1 (stereo not given),2.4%,0%,4.8%,1.68%,5.61%
COCCn1c(=O)n([C@H]2CCCN(C(=O)NCCc3ccccc3)C2)c2ncccc21,-6.38%,-3.44%,-7.74%,-10.2%,6.06%
COc1ccc(CN2C(=O)c3cc(-c4ccccc4)nn3CC2(C)C(=O)NCc2ccccc2)c(OC)c1 (stereo not given),-1.77%,3.59%,-1.7%,-3.3%,-4.85%
COc1cccc(NC(=O)CSc2nnc3n(CC(C)C)c(=O)c4ccc(Cl)cc4n23)c1,-6.82%,0.635%,3.27%,-15.1%,0.434%
CC1(C(=O)NC2CCCCC2)Cn2c(ccc2-c2ccccc2)C(=O)N1Cc1ccco1 (stereo not given),-0.42%,1.04%,2.47%,-13%,-0.999%
O=c1[nH]c2ccc(S(=O)(=O)N3CCN(Cc4ccc5c(c4)OCO5)CC3)cc2[nH]1,7.36%,0%,10%,2.35%,-7.79%
COc1cccc(NC(=O)Cn2c(=O)oc3cc(S(=O)(=O)N4CC(C)CC(C)C4)ccc32)c1 (stereo not given),7.18%,0.566%,4.76%,3.55%,-45.1%
CC(C)Oc1ccc(CN2C(=O)c3ccc(-c4ccco4)n3CC2(C)C(=O)NC2CCCCC2)cc1 (stereo not given),-4.45%,1.71%,5.01%,-6.34%,-0.933%
CC(=O)[C@@]1(O)CC[C@H]2[C@@H]3CCC4=CC(=O)CC[C@]4(C)[C@H]3CC[C@@]21C,13.9%,16.5%,14.4%,-4.7%,1.15%
O=C(c1c(F)ccc(NS(=O)(=O)N2CC[C@@H](F)C2)c1F)c1c[nH]c2ncc(-c3cnc(C4CC4)nc3)cc12,-16.2%,1.86%,-13.5%,-26.5%,-18.7%
C=C1CC/C=C(/CO)C(=O)C[C@@H]2[C@@H]1CC2(C)C,5.03%,5.79%,10%,-9.13%,6.4%
COCCCN1C(=O)c2cc3oc(C)cc3n2CC1(C)C(=O)NC1CCCCCCC1 (stereo not given),-8.62%,1.03%,-0.782%,-7.46%,-2.52%
CN1CCC(NC(=O)CC2(Cc3ccccc3)C(=O)N(C)c3ccccc32)CC1 (stereo not given),-3.29%,-7.37%,-2.38%,-9.7%,-4.77%
CC(C)Cn1c(=O)c2ccc(Cl)cc2n2c(SCC(=O)Nc3ccccc3F)nnc12,-9.72%,5.08%,8.3%,-14.1%,-3.93%
CCCNC(=O)CNC(=O)C1(C)Cn2c(cc3ccccc32)C(=O)N1C (stereo not given),0.708%,0.771%,5.88%,6.72%,5.66%
CC(C)OCCCn1c(=O)c2ccccc2n2c(SCC(=O)Nc3ccc4c(c3)OCO4)nnc12,-7.92%,-2.38%,-0.829%,-8.92%,-5.08%

SMILES,"activity change, negative = inhibition [1]","activity change, negative = inhibition [2]","activity change, negative = inhibition [3]","activity change, negative = inhibition [4]","activity change, negative = inhibition [5]"
CCN(CC)C(=O)c1ccc(O)c(OC)c1,-4.66%,7.46%,0.004%,-6.97%,7.77%
CCOC(=O)COc1cc2oc(=O)cc(-c3ccccc3)c2cc1Cl,-2.71%,0%,5.12%,2.36%,-1.83%
CCCCN1C(=O)c2cc(C(=O)NCc3ccc4c(c3)OCO4)nn2CC1(C)C(=O)NC1CCCC1 (stereo not given),3.26%,0.152%,2.86%,0.488%,2.48%
CCCC1c2ccc(C)n2CCN1C(=O)Nc1cccc(OC)c1 (stereo not given),0.74%,3.43%,-0.751%,3.08%,3.35%
CCOC(=O)c1cc2n(n1)CC(C)(C(=O)NC1CCCCCC1)N(c1ccc(C)cc1)C2=O (stereo not given),4.32%,0.909%,1.92%,1.58%,4.8%
CCCn1c(=O)c2ccc(C(=O)NC(C)CC)cc2n2c(SCC(=O)Nc3ccc(C)c(C)c3)nnc12 (stereo not given),-1.22%,2.5%,0.281%,0.878%,-0.575%
Cc1cccc(-c2nnn3c2nc(N2CCCCC2)c2ccccc23)c1,-1.58%,4.83%,4.12%,-1.75%,-13.4%
O=C(C1OC1/C=C/c1ccc2c(c1)OCO2)N1CCCCC1 (stereo not given),2.5%,7.03%,1.86%,-7.14%,4.51%
CCCn1c(=O)c2ccc(Cl)cc2n2c(=O)n(CC(=O)c3ccc(Br)cc3)nc12,3.99%,0%,11.3%,5.08%,3.73%
O=C(CCn1ccc2cc(S(=O)(=O)N3CCCCC3)ccc21)NCCc1ccccc1Cl,-3.06%,-3.77%,4.03%,-7.61%,-5.14%
CSCCCN1CC[C@@H](NC(=O)c2ccncc2)[C@H](O)C1,-6.62%,-9.13%,-4.93%,-14.1%,1.78%
c1cncc(-c2nnc3n2CCN(Cc2ccsc2)C3)c1,-2.81%,-4.18%,0.854%,-9.91%,-2.5%
COc1ccc(-c2nnc3n(CCCOC(C)C)c(=O)c4ccccc4n23)cc1OC,-3.44%,3.67%,2.42%,-0.155%,0.036%
C=CCn1c(=O)c2ccc(C(=O)NC(C)CC)cc2n2c(=O)n(CC(=O)Nc3ccc(F)cc3)nc12 (stereo not given),3.83%,3.21%,1.01%,0.346%,3.28%
O=C(C1CC1)N1CCC(Cc2noc(-c3ccncc3)n2)C1 (stereo not given),-6.82%,-6.73%,-4.97%,-11.7%,-18.6%
Cc1cc2ncc(C(=O)NCc3ccccc3Cl)cn2n1,-3.01%,0.946%,-4.5%,-4.05%,-0.757%
COc1ccc(C(=O)N2CC[C@H](c3nnc(-c4ccccc4)o3)C2)cc1,-5.55%,5.27%,0.253%,-8.8%,-4.83%
NC1(C(=O)O)CC1,-11.5%,-0.256%,-5.47%,-8.34%,1.82%
CCCn1c(=O)c2ccc(C(=O)NCC(C)C)cc2n2c(=O)n(Cc3ccccc3C)nc12,-0.854%,0%,5.67%,1.99%,3.98%
O=c1[nH]nc2n1CCN(CC1CCCCC1)CC2,-1.46%,-0.952%,-1.48%,-1.93%,17.6%

SMILES,"activity change, negative = inhibition [1]","activity change, negative = inhibition [2]","activity change, negative = inhibition [3]","activity change, negative = inhibition [4]","activity change, negative = inhibition [5]"
O=C1CN(Cc2ccccc2F)S(=O)(=O)c2ccccc2N1Cc1ccccc1,5.45%,3.13%,3.61%,0.77%,4.67%
CCC1c2ccc(C)n2CCN1C(=O)NCc1ccccc1 (stereo not given),-0.683%,0%,1.61%,2.48%,-3.66%
COCC(=O)N1CCC(C2CCN(C(=O)c3ccncc3)CC2)C1 (stereo not given),-0.585%,1.67%,-0.065%,-0.451%,-3.05%
CC1OC2OC3C(OCC(O)C3O)OC(=O)C34CCC(C)(C)CC3C3=CCC5C6(C)CC(O)C(OC7OC(CO)C(O)C(O)C7OC7OCC(OC(=O)CC(C)(O)CC(=O)OC1C(OC1OCC(O)C(O)C1O)C2O)C(O)C7O)C(C)(CO)C6CCC5(C)C3(C)CC4O (stereo not given),-0.547%,12%,-0.709%,-6.32%,3.56%
CC1(C)CC[C@]2(C(=O)O)CC[C@]3(C)C(=CCC4[C@@]5(C)CC[C@H](O[C@@H]6O[C@H](CO)[C@@H](O)[C@H](O)[C@H]6O[C@@H]6O[C@H](CO)[C@@H](O)[C@H](O)[C@H]6O)[C@@](C)(CO)C5CC[C@]43C)[C@@H]2C1 (stereo not given in full),-2.38%,-2.43%,4.48%,-16.2%,0.11%
CCOCCCNC(=O)C1c2c(n(C)c3ccccc23)SCC(=O)N1c1ccc(C(=O)OCC)cc1 (stereo not given),4.84%,2.3%,0.844%,1.23%,5.28%
CCN1C(=O)c2cc(C(=O)NCc3ccc(OC)c(OC)c3)nn2CC1(C)C(=O)NC1CCCC1 (stereo not given),-0.166%,0%,-7.18%,1.37%,3.4%
O=C(c1ccncc1)N1CCC(Nc2cccnc2)C1 (stereo not given),-25.2%,-14.6%,-7.95%,-12.1%,-27.3%
COc1cccc(CN2C(=O)c3ccc(-c4ccco4)n3CC2(C)C(=O)NC2CCCC(C)C2C)c1 (stereo not given),-0.706%,0.084%,3.75%,-11.4%,-1.16%
Cc1ccc(Cn2c(=O)c3ccccc3n3c(-c4cc(Br)cs4)nnc23)cc1,-4.05%,1.46%,1.46%,3.05%,-4.35%
CCCn1c(=O)c2ccc(C(=O)NC3CCCC3)cc2n2c(=O)n(CC(=O)Nc3ccc(C)c(C)c3)nc12,-0.522%,0.648%,-0.465%,-1.54%,1.09%
O=C(CCc1ccccc1)N1CCC(O)(Cn2cnc3cc(Cl)ccc3c2=O)CC1,2.96%,-1.17%,7.46%,-13.7%,-3.76%
CCCCN1C(=O)c2cc3c(OC)ccc(OC)c3n2CC1(C)C(=O)NC1CCC(C)CC1 (stereo not given),-4.61%,4.71%,2.81%,0.615%,-0.48%
c1coc(-c2nnc([C@H]3CCN(Cc4c[nH]c5ccccc45)C3)o2)c1,-4.57%,-5.22%,-38.9%,-12.2%,-21.7%
NC(=O)Nc1cc(-c2cccc(F)c2)sc1C(=O)N[C@H]1CCCNC1,-5.61%,5.11% and 5.56%,-20.7%,-29.4% and -28.7%,0.131% and -8.72%
C[C@H]1CC[C@@]2(OC1)O[C@H]1CC3C4CC[C@H]5C[C@@H](O)CC[C@]5(C)C4CC(=O)[C@]3(C)[C@H]1[C@@H]2C (stereo not given in full),-0.903%,-9.48%,7.42%,-22.9%,1.02%
CCOC(=O)CNC(=O)N1CCn2cccc2C1C (stereo not given),6.25%,0%,12.5%,-3.7%,6.08%
COc1cc(C[C@@]2(O)CO[C@@H](c3ccc(O[C@@H]4O[C@H](CO)[C@@H](O)[C@H](O)[C@H]4O)c(OC)c3)[C@H]2CO)ccc1O,1.87%,-1.99%,7.9%,-13.6%,4.67%

# Source: PubChem BioAssay AID1745853 (National Center for Advancing Translational Sciences (NCATS), 2022)
